Experimental findings from PMC5515408 are described below.

This is one part of the list. At the low end of the ranking the order means little.

For this experiment, the target named is MAX:MAX (p21) (UniProt P61244-2). Briefly: protein-binding microarray (anti-MAX antibody). The note with it: PBM: 15 mM Tris-HCl pH 7.5, 100 mM KCl, 0.075% NP40, 7.5 mM beta-mercaptoethanol, 375 ng/ul BSA, 8 ng/ul poly(dA-dT):(dA-dT), 550 ng complex, 60 min, room …; high values mean tight binding; double strand, one strand shown; sequences stand for … in CCGGC…TTAATAGCTAAGATTACTATATCGACG
Sequence TTATACGTGATA showed a binding signal (log2 normalized fluorescence) of 0.467. Then TGATCTTAAGTA, with -0.996. Then TGACGAAGTGTA, with -0.547; and TGACAAGCCGTA, with -0.454; and TGAGCGGCCGTA, with -1.04. As for TGACATCGGGTA, the figure is 0.225; as for TGAGAGTCGGTA, -1.2. Regarding TGAGGTGCGGTA, the binding signal (log2 normalized fluorescence) stood at 0.226. As for TGATTGTAAGTA, the figure is -0.594; as for TGAAACGTGTTA, 3.05. Then TGACTGTAAGTA, with -0.4; and TGAAATGGGTTT, with -0.419. Then TGAAGTGCGGTA, with 0.541; and TGATGTAGTGTA, with -0.162; and TGATTGCACGTA, with 0.423. As for TGACCCGGAGTA, the binding signal (log2 normalized fluorescence) was -0.596. As for TGACACATGCAA, the figure is 3.17; as for TGACTCGTGGTA, 2.95. As for TGAGGCTGAGTA, the figure is -0.711; as for TGATCCAGCGTA, -1.01. Then TGAGTATTTGTA, with -1.13.

Consider TGAACACACGTA, for which the binding signal (log2 normalized fluorescence) amounted to 1.45. Take TGAGGCCCAGTA: the binding signal (log2 normalized fluorescence) is -0.652. Then TGAGCTCCCGTA, with -1.07; and TAACACGTTGTA, with 3.12; and TGATGGACTGTA, with 0.00745. As for TGACGAACTGTA, the figure is -0.551. Take TGAAGTTTGGTA: the binding signal (log2 normalized fluorescence) was -1.06.

The sequence TGAATTAGGGTA registered a binding signal (log2 normalized fluorescence) of -1.09. TGATTACACGTA: the binding signal (log2 normalized fluorescence) is 0.436. In turn, TGAGATAGCGTA came in with a binding signal (log2 normalized fluorescence) of -1.04.

The sequence TGAGCTATTGTA yielded a binding signal (log2 normalized fluorescence) of -1.4.

TGAATGTTGGTA gave a binding signal (log2 normalized fluorescence) of 0.124.

TGACGGGAAGTA displayed a binding signal (log2 normalized fluorescence) of -0.802. Consider TGACACGTGTTA, for which the binding signal (log2 normalized fluorescence) is 3.29. As for TGAGCTCAGGTA, the figure is -0.146; as for TGACCCTATGTA, 0.382. TGGAACGTCGTA had a binding signal (log2 normalized fluorescence) of -0.338. As for TGACATTTGGTA, the figure is 0.0917. As for TGACGCGCGGTG, the figure is 1.58; as for TGAGAGCTAGTA, -1.06; as for TGACTGCTAGTA, -0.306. As for TGAGGATCGGTA, the figure is -0.777; as for TGAGTCGAAGTA, -1.05; as for TGAAAGCACGTA, 0.817. TGTCACTTGGTA yielded a binding signal (log2 normalized fluorescence) of 0.0592. Then TGACCCGTGGTT, with 2.36; and TGAGCCAGGGTA, with -1.24; and TGACGACCGGTA, with -0.233. As for TGATGCCGCGTA, the figure is 0.00246; as for GTTCAGCAAAAA, -0.213. As for TGAGAGTACGTA, the binding signal (log2 normalized fluorescence) is -0.679. In turn, TGACTCGAAGTA came in with a binding signal (log2 normalized fluorescence) of -0.426.

Turning to TGAGAGGTGTTA, the binding signal (log2 normalized fluorescence) is -0.147. TGAGCCTGTGTA showed a binding signal (log2 normalized fluorescence) of -0.226. Then TGAACGTCTGTA, with -0.0331; and TGAACTCTTGTA, with -0.55. As for TGAAGTGGCGTA, the figure is -0.442. Then TGACTTTCAGTA, with -0.978. For the sequence TGACGCGTGGTT, the binding signal (log2 normalized fluorescence) was 3.21. Sequence TGAAATTGCGTA returned a binding signal (log2 normalized fluorescence) of -0.658.

The sequence TGAGGTTCAGTA displayed a binding signal (log2 normalized fluorescence) of -0.623. As for TGACCCAGTGTA, the figure is -0.0826; as for TGACTTATCGTA, -0.514. TGAAATATAGTA registered a binding signal (log2 normalized fluorescence) of -1.09.

In turn, TGATTCGATGTA gave a binding signal (log2 normalized fluorescence) of -0.732. As for TGAGGTTTTGTA, the figure is -1.2. As for TGACAGGTCGTA, the figure is 0.0186. Then AGACTCGTCGTA, with -0.0778; and TGAGAAAGGGTA, with -1.02. In the case of TGACTGCCTGTA, the binding signal (log2 normalized fluorescence) is 0.0499. For the sequence TGATACGGGGGA, the binding signal (log2 normalized fluorescence) worked out at 1.06.

TGACACCGCGTA: the binding signal (log2 normalized fluorescence) was 0.324. Then TGACACATGATA, with 2.95; and TGGAACGTGGTA, with 2.99; and TGATCCCTTGTA, with -0.907. Then TGATCCTCAGTA, with -0.95; and TGAATTCGCGTA, with -0.831; and TGAAGATGCGTA, with -0.322. Then TGATGGATCGTA, with -0.47; and TGACTCACTGTA, with -0.209. Consider TGATGTGACGTA, for which the binding signal (log2 normalized fluorescence) stood at 0.536.

In the case of TGAGCTGTTGTA, the binding signal (log2 normalized fluorescence) was -0.74.

Take TGTAGCGTGGTA: the binding signal (log2 normalized fluorescence) turned out to be 3.02. For GGACACGTGGTA, the binding signal (log2 normalized fluorescence) came to 3.33. The sequence TGAACCTTCGTA returned a binding signal (log2 normalized fluorescence) of -0.525. As for TGAAGCTATGTA, the figure is -0.869. Then TGATTACAAGTA, with -0.837. Then TGACACGGGGTC, with 3.1; and TGATATCCGGTA, with -1.21. Sequence TGAAGCCAGGTA gave a binding signal (log2 normalized fluorescence) of -0.487. As for TGGATCGTGGTA, the figure is 1.39. TGAGTCTCTGTA displayed a binding signal (log2 normalized fluorescence) of -0.778. As for TGAAAGTGGGTA, the figure is -0.566; as for AGACACGTTGTA, 3.21. Then TGATAAGTTGTA, with -0.958; and TGATAGACTGTA, with -0.915. Regarding TGACCCTCAGTA, the binding signal (log2 normalized fluorescence) is -0.595. Then TGATACTATGTA, with -0.934.

Sequence CGCCACGTGGTA yielded a binding signal (log2 normalized fluorescence) of 3.32. As for TGAGGTCCGGTA, the figure is -0.855; as for TGAATCATTGTA, -0.393.

The sequence TGAATAATAGTA had a binding signal (log2 normalized fluorescence) of -1.18. As for TGAAATTTAGTA, the figure is -1.17; as for TGACACGTGTAT, 3.21; as for TCACACGTGGGC, 3.27. As to TGAAGAGTAGTA, the binding signal (log2 normalized fluorescence) was -0.902. As for TGATATCTGGTA, the figure is -1.04; as for GGACACGGTGTA, 2.21; as for TGAAGGACGGTA, -0.466.

The sequence TGATGGCCGGTA had a binding signal (log2 normalized fluorescence) of 0.391.

For the sequence TGAGATCGAGTA, the binding signal (log2 normalized fluorescence) was -0.743. As for TGAGGTTATGTA, the figure is -0.767. As for TGAGCGCAGGTA, the figure is -0.34; as for TGAGATGGGGTA, -0.154. Then TGATTCAAAGTA, with -1.13; and TGAAACCCCGTA, with -0.43; and TGATGCAACGTA, with 0.0168.

Turning to TGACAACAAGTA, the binding signal (log2 normalized fluorescence) was -0.00212. As for TGAGGAAACGTA, the figure is -0.713; as for GGACACGGGGTA, 3.01. Then TGTCACCTGGTA, with 2.13; and TGAGCCTTTGTA, with -1.52. As for TGAAGACGTGTA, the figure is 0.674; as for TGAACGCTGGTA, 0.233.

On to TGAGGGACGGTA, for which the binding signal (log2 normalized fluorescence) was -0.417.

TGACACTCCGTA registered a binding signal (log2 normalized fluorescence) of -0.0103. As for TAATTCGTGGTA, the figure is 0.431; as for TGAATCGCGGTA, -0.32. Then TGATCAGCTGTA, with 1.02; and TGAATGACCGTA, with 0.107; and TGACACGTATCA, with 1.42. TGAGTACTTGTA yielded a binding signal (log2 normalized fluorescence) of -1.11. Then CCAAGGCGGAAC, with 0.277; and TGATGAAGAGTA, with -0.263. As for TGAGAGTTAGTA, the figure is -1.04. Then TGAATCCAGGTA, with -0.902. Take TGAGTCGCCGTA: the binding signal (log2 normalized fluorescence) is -1.16.
